# Experimental data reported in PubChem BioAssay AID686979 (National Center for Advancing Translational Sciences (NCATS), 2013).
# “And” between values parts separate entries of the source, which are not always exact repeats. Identical values can stand only once. Hit rate of the full screen: of about 420,000 compounds, about 50,000 (12%) were called active. The shares of active, inactive and inconclusive entries below differ from those in the screen. Calls follow the shape of the dose curve; as a rule, active = well fitted inhibition curve with a large enough effect; inconclusive = small, poorly fitted or top-dose-only effect; inactive = flat fitted curve, though single readings scatter. Potencies of inconclusive entries are doubtful fits and often do not repeat.
# Assay: qHTS for Inhibitors of human tyrosyl-DNA phosphodiesterase 1 (TDP1): qHTS in cells in presence of CPT; also: nearly all actives have a fitted effect of over 55% in size
# Conditions: chicken DT40 Tdp1-/-;hTDP1 cells + 20 nM CPT, ATP luminescence, 48 h; activity change, negative = growth inhibition: at 46.2 µM (top of the series)
# Procedure, shortened: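 Chicken DT40 Tdp1-/- cells complemented with human TDP1, 400 cells/well, exposed to compounds plus 20 nM camptothecin for at least 48 h at 37 C; viability read as ATP content by CellTiter-Glo luminescence.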
# % is scaled to controls: 0 for no effect and ±100 for the full control effect; potency is read from the fitted curve at half-maximal effect; tags tell the direction and shape of the fitted curve.
Compound,Potency,"activity change, negative = growth inhibition"
CCn1c(O)c(C2=c3ccccc3=NC2=O)c2cc(Br)ccc21,active: 6.51 µM,–
CCOC(=O)N1CCC(N2CCCC(C(=O)c3ccc4cc(OC)ccc4c3)C2)CC1 (centres undefined),active: 23.1 µM,–
CC(C)CN1C=C2C(=O)C(C)(OC(=O)CCc3ccccc3)C(=O)C=C2C=C1c1ccc(C#N)cc1 (centres undefined),active: 20.6 µM,–
O=C(NCCN1CCN(c2cccc(Cl)c2)CC1)C1CCCN(S(=O)(=O)c2cnc[nH]2)C1 (centres undefined),"inconclusive: 29.1 µM [inhibitor, single point]",–
CCOc1ncccc1C(=O)OCc1cccc([N+](=O)[O-])c1,inactive,–
Cn1nccc1-c1ccc(C(=O)Nc2cccc(NS(C)(=O)=O)c2)c2occc12,"inconclusive: 29.1 µM [inhibitor, single point]",–
CC1CCN(S(=O)(=O)c2nnc(NC(=O)COc3ccccc3F)s2)CC1,inactive,–
O=C(Cc1cccs1)N1CCCC(c2nc3c(nnn3Cc3cccc(Cl)c3)c(=O)[nH]2)C1 (centres undefined),"inconclusive: 32.6 µM [inhibitor, single point]",–
COc1ccccc1-c1cc2nc(C)c(CCC(=O)NC3CCCCC3)c(C)n2n1,inactive,–
Cc1cccc(Nc2nc(N3CCCC3)nc(N3CCCC3)n2)c1,–,inconclusive: -33.5% [inhibitor]
COc1ccc(C(C(=O)NC2CCCC2)N(C(=O)c2snc(-c3ccc(F)cc3)c2N)c2ccccc2)cc1 (centres undefined),active: 14.6 µM,–
O=C(Nc1ccc(S(=O)(=O)Nc2cnc3ccccc3n2)cc1)c1ccccc1Br,inactive,–
CCCCn1c(N)c(N(CCOC)C(=O)c2ccc(S(=O)(=O)N3CCC(C)CC3)cc2)c(=O)[nH]c1=O,inactive,–
Cc1ccc(S(=O)(=O)c2nnn3c2nc(N2CCN(c4cccc(C)c4C)CC2)c2ccccc23)cc1C,inactive,–
COc1cc(C)ccc1Oc1ncnc(N)c1[N+](=O)[O-],inactive,–
CC(NC(=O)Oc1cccc2ccccc12)c1ccccc1 (centres undefined),"inconclusive: 23.1 µM [inhibitor, single point]",–
CCCCn1cnc2c1c(=O)[nH]c(=O)n2CCCC,"inconclusive: 29.1 µM [inhibitor, single point]",–
CCCCOc1cccc(C(=O)N(Cc2ccc(Cl)cc2)C2CCS(=O)(=O)C2)c1 (centres undefined),active: 14.6 µM,–
Cc1ccc(-c2noc(-c3ccc(NCC4CCCO4)c([N+](=O)[O-])c3)n2)cc1 (centres undefined),–,inconclusive: -30.4% [inhibitor]
COc1ccc(CCNC(=O)CSc2nnc(-c3ccc(C)cc3)c(-c3ccc(C)cc3)n2)cc1OC,"inconclusive: 20.6 µM [inhibitor, single point]",–
COC(=O)[C@]12CCCCC=C1N(Cc1ccco1)C(=O)[C@H](CC(=O)NCC13CC4CC(CC(C4)C1)C3)C2,"inconclusive: 29.1 µM [inhibitor, single point]",–
COc1ccc(CCNC(=S)NCCc2ccc(OC)c(OC)c2)cc1OC,"inconclusive: 29.1 µM [inhibitor, single point] and inconclusive: 20.6 µM [inhibitor, single point]",–
COc1cc(C)ccc1OCCOCCOc1c(C)cc(C)cc1Br,"inconclusive: 16.4 µM [inhibitor, single point]",–

Compound,Potency,"activity change, negative = growth inhibition"
COc1ccc(C2NC(=O)c3ccccc3N2)cc1 (centres undefined),"inconclusive: 25.9 µM [inhibitor, single point]",–
O=C1NC(=S)S/C1=C\c1cc2ccccc2nc1N1CCCCC1,active: 20.6 µM,–
CCOC(=O)c1cc2cc(OC)ccc2n1C1CCN(C)CC1,"inconclusive: 29.1 µM [inhibitor, single point]",–
C=CCn1c(=O)/c(=C2/SC(C)=C(C)N2CC)s/c1=C1/C(=O)N(CC)C(=S)N1c1ccccc1,inactive,–
O=C(Nc1cccc(C(=O)O)c1)/C(=C\c1ccco1)NC(=O)c1ccc(Br)o1,inactive,–
COc1cc2c(cc1NC(=O)CN1C(=O)NC3(CCc4ccccc43)C1=O)oc1ccccc12 (centres undefined),"inconclusive: 29.1 µM [inhibitor, single point]",–
COc1ccc(NC(=O)c2ccc(Cl)c(S(=O)(=O)NCC3CCCO3)c2)c(OC)c1 (centres undefined),inactive,–
COc1ccc(CNc2nc(-c3cccnc3)nn2C(=O)c2cccs2)cc1,"inconclusive: 13 µM [inhibitor, single point]",–
O=C(c1ccc(CS(=O)(=O)c2c(Cl)cccc2Cl)o1)N1CCCC1,"inconclusive: 23.1 µM [inhibitor, single point]",–
COc1ccc(N(CC(=O)N2c3ccccc3CC2C)S(=O)(=O)c2c(C)noc2C)cc1 (centres undefined),"inconclusive: 23.1 µM [inhibitor, single point]",–
COc1cccc(-c2ccc(O)c(CNCc3cccc4ccccc34)c2)n1,inactive,–
COC(=O)c1cc(S(=O)(=O)NCc2cc(OC)c(OC)c(OC)c2)cn1C,inactive,–
CCO[C@H]1OC(C(=O)NCc2nc3ccccc3[nH]2)=C[C@@H](c2cn(C(C)=O)c3ccccc23)[C@@H]1CCCO,"inconclusive: 23.1 µM [inhibitor, single point]",–
COc1ccc(C2=Nc3ccccc3N(C(=O)c3ccc4c(c3)OCO4)C2C(=O)NCc2ccccc2)cc1 (centres undefined),"inconclusive: 9.2 µM [inhibitor, partial curve]",–
O=c1c2cc(Br)ccc2nc(-c2ccc([N+](=O)[O-])cc2)n1O,"inconclusive: 23.1 µM [inhibitor, single point]",–
O=c1c2c(nc3c(-c4cccc5ccccc45)c[nH]n13)CCC2,active: 25.1 µM,–
CC(=O)Oc1ccc(C2(c3ccc(OC(C)=O)cc3)Oc3ccccc3NC2=O)cc1,"inconclusive: 29.9 µM [inhibitor, single point]",–
COc1ccc(CNc2ncncc2-c2ccccc2C)c(OC)c1,inactive,–
CCOC(=O)C1=C(COC(=O)c2ccc(C)s2)NC(=O)NC1C (centres undefined),inactive,–
COc1cc(C(=O)N/N=C/c2cccc(Oc3ccccc3)c2)ccc1O,–,inconclusive: -30.9% [inhibitor]
CCOC(=O)c1c(NC(=O)Nc2ccccc2)sc(C)c1C,"inconclusive: 29.1 µM [inhibitor, single point]",–
CCOC(=O)C[C@@H]1OC[C@H](Cc2ccccc2)N1S(=O)(=O)c1ccc(C)cc1,"inconclusive: 18.4 µM [inhibitor, single point]",–
CCOc1ccc(C(=O)NCCS(=O)(=O)N2CCN(c3cccc(Cl)c3)CC2)cc1,"inconclusive: 14.6 µM [inhibitor, partial curve, poor fit]",–

Compound,Potency,"activity change, negative = growth inhibition"
[2H]C(CCOS(N)(=O)=O)c1ccc(C(C)(C)C)cc1 (centres undefined),active: 20.6 µM,–
OC1c2cc(Br)ccc2N=C2CCCCCN21 (centres undefined),"inconclusive: 8.2 µM [inhibitor, partial curve]",–
OCc1cccc(-c2csc(C(O)(c3ccccc3)C(F)(F)F)n2)c1 (centres undefined),"inconclusive: 13 µM [inhibitor, partial curve]",–
CCOc1ccc2[nH]c3c(=O)n(CCc4ccc(OC)cc4)cnc3c2c1,inactive,–
CC(C)C(=O)N(Cc1ccc(F)cc1)Cc1nc2ccccc2c(=O)[nH]1,–,inconclusive: -36.6% [inhibitor]
COc1ccc(C(=O)c2cn(Cc3ccccc3F)c3ccc(F)cc3c2=O)cc1,"inconclusive: 29.1 µM [inhibitor, single point]",–
Cc1ccccc1Nc1nc(N)nc(COC(=O)c2nn(C)c(=O)c3ccccc23)n1,"inconclusive: 25.9 µM [inhibitor, single point]",–
NC(=O)C(c1ccc(F)cc1)c1ccc(C(=O)c2ccccc2)cc1 (centres undefined),"inconclusive: 8.2 µM [inhibitor, partial curve]",–
COc1ccc2c(c1)c(C(=O)N/N=C/c1ccccc1Cl)c(C)n2C,active: 20.6 µM,–
CC(=O)NCCn1c(SCc2cc(F)ccc2F)nc2ccccc2c1=O,"inconclusive: 25.9 µM [inhibitor, single point]",–
Nc1nc(N)nc(COc2ccccc2)n1,inactive,–
CC(C)(C)OC(=O)NCCCCCNC(=O)c1ncn2c1c(=O)[nH]c1ccccc12,"inconclusive: 20.6 µM [inhibitor, single point]",–
COc1cc(C(=O)Nc2ccccc2OCc2cc(=O)n3cc(C)sc3n2)cc(OC)c1OC,–,inconclusive: -37.5% [inhibitor]
Cc1nc(OCc2ccccc2)c2ccccc2n1,"inconclusive: 14.6 µM [inhibitor, partial curve]",–
Cc1ccc(-c2nnc(Nc3ccc(Cl)cc3)c3ccccc23)cc1S(=O)(=O)NCC1CCCO1 (centres undefined),"inconclusive: 29.1 µM [inhibitor, single point]",–
CCN1C(=O)N(c2cccc3ccccc23)C(C)=CC1(C)C,"inconclusive: 20.6 µM [inhibitor, single point]",–
O=C(c1cccc(Cl)c1)N1CCC(c2nc3c(nnn3Cc3ccc(F)cc3F)c(=O)[nH]2)CC1,"inconclusive: 18.4 µM [inhibitor, single point]",–
COC(=O)CN1C(=O)S/C(=C/c2ccc(N3CCCCC3)o2)C1=O,"inconclusive: 18.4 µM [inhibitor, single point]",–
COC(C[C@H]1O[C@H]1[C@@H](O)[C@@H](C)OCc1ccccc1)OC,inactive,–
COC(=O)/C(C(C)=O)=C(\C=C\N(C)C)N(C)C,inactive,–
CCOC(=O)c1[nH]c(CO)c(C(=O)OCC)c1C,inactive,–
Cc1cccc(N2CCN(C(=S)c3ccc([N+](=O)[O-])cc3)CC2)c1,"inconclusive: 25.9 µM [inhibitor, single point]",–
S=C(Nc1ccccc1Cl)NC1CCCCCC1,"inconclusive: 16.4 µM [inhibitor, single point]",–
